This is an account of results in patent US20230002486A1 (SPARX THERAPEUTICS, published 2023).

Test [1] deals with T1, PD-L1 (programmed death-ligand 1), recombinant protein (human, UniProt Q9NZQ7 partial chain, limits assumed).
T1 construct: the other ELISAs print only 'PD-L1'; also called human PDL1; CD274
The experiment in a line: ELISA at pH6, coated PD-L1 (FIG. 8B). (In general: An ELISA detects its analyte on a solid surface through an enzyme-linked reagent.)

Test [2] has as its target claudin 18.2 (CLDN 18.2), recombinant protein (human). The experiment in a line: direct ELISA, coated recombinant CLDN 18.2 (FIG. 7A).
For test [3] the target is unchanged. In words: ELISA at pH6, coated CLDN 18.2 (FIG. 8A).
In test [4] the target is T1, PD-L1 (programmed death-ligand 1), …. The experiment in a line: ELISA at pH3, coated PD-L1 (FIG. 8B).
Test [5] shares this target. In words: ELISA at pH4, coated PD-L1 (FIG. 8B).
Test [6] has as its target T2, CLDN 18.2 fused with GFP at its C-terminal, on MCF7 cells (MCF7-CLDN 18.2) (human). The experiment in a line: flow cytometry on living MCF7 cells stably expressing CLDN 18.2, DyLight 650 anti-IgG.
In test [7] the target is T1, PD-L1 (programmed death-ligand 1), …. In words: direct ELISA, coated PD-L1. The source says: (§1) ELISA assay was employed to determine the binding properties of the bispecific antibodies to their antigens. […] The wells were then reacted with goat anti human IgG antibody conjugated with horseradish peroxidase (HRP).
Test [8] concerns the target claudin 18.2 (CLDN 18.2), recombinant protein (human). In words: ELISA at pH4, coated CLDN 18.2 (FIG. 8A).
The target in test [9] is T3, CLDN 18.2 expressed on stably transfected cells (HEK293T-CLDN 18.2, MiaPaCa-CLDN 18.2) (human). The experiment in a line: cell-based or functional assay.
In test [10] the target is T2, CLDN 18.2 fused with GFP at its …. The experiment in a line: cell-based or functional assay.
Test [11] has as its target claudin 18.2 (CLDN 18.2), recombinant protein (human). In words: ELISA at pH4.5, coated CLDN 18.2 (FIG. 8A).
The target is the same in test [12]. The experiment in a line: ELISA at pH3, coated CLDN 18.2 (FIG. 8A).
In test [13] the target is T3, CLDN 18.2 expressed on stably …. In words: In-Cell ELISA on fixed HEK293T cells over-expressing CLDN 18.2.
The target of test [14] is claudin 18.2 (CLDN 18.2), recombinant protein (human). The experiment in a line: direct ELISA, coated recombinant CLDN 18.2 (FIG. 11B).
Test [15] concerns the target T1, PD-L1 (programmed death-ligand 1), …. The experiment in a line: ELISA at pH4.5, coated PD-L1 (FIG. 8B).
Test [16] deals with claudin 18.2 (CLDN 18.2), recombinant protein (human). The experiment in a line: direct ELISA, coated recombinant CLDN 18.2.
Description: as §1

Test [17] concerns the target T1, PD-L1 (programmed death-ligand 1), …. The experiment in a line: direct ELISA, coated PD-L1 (FIG. 7B).
Test [18] concerns the target T3, CLDN 18.2 expressed on stably …. In words: cell-based or functional assay. This is another data set of the same source.
The target in test [19] is T2, CLDN 18.2 fused with GFP at its …. The experiment in a line: cell-based or functional assay. The source holds these as a separate data set.
In test [20] the target is T1, PD-L1 (programmed death-ligand 1), …. The experiment in a line: direct ELISA, coated PD-L1 (FIG. 9B).
For test [21], the target named is claudin 18.2 (CLDN 18.2), recombinant protein (human). The experiment in a line: direct ELISA, coated recombinant CLDN 18.2 (FIG. 9A).
For test [22], the target named is T1, PD-L1 (programmed death-ligand 1), …. The experiment in a line: competitive ELISA, coated PD-L1, antibody pre-incubated with soluble PD-L1.
Test [23] shares this target. The experiment in a line: direct ELISA, coated PD-L1 (FIG. 12A).
For test [24] the target is unchanged. In words: competitive ELISA, coated PD-L1, antibody pre-incubated with soluble PD-L1 (FIG. 12B).
Test [25] deals with claudin 18.2 (CLDN 18.2), recombinant protein (human). The experiment in a line: direct ELISA, coated recombinant CLDN 18.2 (FIG. 10A).
For test [26], the target named is T1, PD-L1 (programmed death-ligand 1), …. The experiment in a line: direct ELISA, coated PD-L1 (FIG. 10B).

Changes are numbered by the printed parent chain.

T1 sequence (Q9NZQ7 19-238 limits assumed): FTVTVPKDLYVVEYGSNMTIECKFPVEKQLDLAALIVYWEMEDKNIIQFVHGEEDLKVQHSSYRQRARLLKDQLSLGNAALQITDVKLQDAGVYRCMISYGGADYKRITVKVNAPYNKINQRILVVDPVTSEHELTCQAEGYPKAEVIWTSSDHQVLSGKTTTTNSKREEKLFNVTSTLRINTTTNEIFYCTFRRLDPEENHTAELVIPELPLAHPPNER

B1: scDb01, single-chain anti-CLDN 18.2/anti-PD-L1 bispecific antibody (bispecific antibody)
chain: DIQMTQSPSSLSASVGDRVTITCKSSQSLLNSGNQKSYLTWYQQKPGKAPKLLIYWASTLESGVPSRFSGSGSGTDYTLTISSLQPEDFATYYCQNAYFFPFTFGQGTKVEIKSGGGGEVQLVESGGGLVQPGGSLRLSCAASGFTFSRYWMSWVRQAPGKGLEWVANIKQDGSEKYYVDSVKGRFTISRDNAKNSLYLQMNSLRAEDTAVYYCAREGGWFGELAFDYWGQGTLVTVSSGGGGSGGGGSGGGGSEIVLTQSPGTLSLSPGERATLSCRASQRVSSSYLAWYQQKPGQAPRLLIYDASSRATGIPDRFSGSGSGTDFTLTISRLEPEDFAVYYCQQYGSLPWTFGQGTKVEIKSGGGGEVQLVESGGGLVQPGGSLRLSCAVSGYTFSMNWVRQAPGKGLEWVAWINMYTGEPTYADDFKGRFTISRDDSKNTLYLQMNSLRAEDTAVYYCARLYNGNSLDYWGQGTLVTVSSGGGGS[human IgG1 Fc with C220S (EU numbers) not printed]
notes: 5C9ob VL-L1-durvalumab VH-L2-durvalumab VL-L3-5C9ob VH-L4-Fc (CH2CH3) on one polypeptide; also called ScDBO1; scD01
As for B1, the Kd in test [1] worked out at 0.352 nM; in test [2], 0.263 nM; in test [3], 0.158 nM; in [4], 0.488 nM; in [5], 0.343 nM; in test [7], 0.59 nM. Also, the dissociation constant (Kd) turned out to be 0.176 nM in test [8]; 0.16 nM in test [11]; 0.252 nM in test [12]; 0.582 nM in test [13]; 0.279 nM in [14]; 0.335 nM in test [15]. In addition, the equilibrium dissociation constant (Kd) in test [16] was 0.26 nM; in [17], 0.585 nM. Besides, the “EC50 (read off the curve)” value in test [6] is about 3 nM. Further, in [9], the “ADCC reporter assay, EC50 (FIG. 18)” value came to 0.0156 nM. The “ADCC reporter assay, EC50 (FIG. 23A)” value in test [9] is 0.0042 nM. Moreover, in [10], the “ADCC reporter assay, EC50 (FIG. 24A)” value stood at 0.00203 nM. The Bmax in test [13] was found to be 1.25 nM. Besides, the “ADCC Reporter in HEK293-CLDN18.2, EC50” value in test [18] is 0.004 nM. Also, the “CDC in HEK293-CLDN 18.2, EC50” value in test [18] was determined as 1.29 nM. The “ADCC Reporter in MCF7-CLDN 18.2, EC50” value in test [19] is 0.003 nM.

B2: scDb02, single-chain bispecific antibody with VH44-VL100 disulfides (bispecific antibody)
chain: B1 chain with Q106C, G162C, Q355C, G408C
notes: Single polypeptide with Fc; also called ScDb2
As for B2, the dissociation constant (Kd) turned out to be 0.4 nM in test [7], 0.4 nM in test [20], 0.208 nM in [21] and 0.21 nM in [16].

B3: scDb04, single-chain bispecific antibody with a VH42-VH3 disulfide (bispecific antibody)
chain: B1 chain with Q121C, G406C
notes: Single polypeptide with Fc; also called ScDb4
Regarding B3, the Kd amounted to 0.51 nM in [7], 0.512 nM in [20], 0.252 nM in [21] and 0.25 nM in [16].

B4: Dblnk18, linker-enhanced single-chain bispecific antibody (bispecific antibody)
chain: DIQMTQSPSSLSASVGDRVTITCKSSQSLLNSGNQKSYLTWYQQKPGKAPKLLIYWASTLESGVPSRFSGSGSGTDYTLTISSLQPEDFATYYCQNAYFFPFTFGQGTKVEIKGSGSGGEVQLVESGGGLVQPGGSLRLSCAASGFTFSRYWMSWVRQAPGKGLEWVANIKQDGSEKYYVDSVKGRFTISRDNAKNSLYLQMNSLRAEDTAVYYCAREGGWFGELAFDYWGQGTLVTVSSGGGGSSGSGSSSRSSGGEIVLTQSPGTLSLSPGERATLSCRASQRVSSSYLAWYQQKPGQAPRLLIYDASSRATGIPDRFSGSGSGTDFTLTISRLEPEDFAVYYCQQYGSLPWTFGQGTKVEIKGSGGGEVQLVESGGGLVQPGGSLRLSCAVSGYTFSMNWVRQAPGKGLEWVAWINMYTGEPTYADDFKGRFTISRDDSKNTLYLQMNSLRAEDTAVYYCARLYNGNSLDYWGQGTLVTVSSGGGGS[human IgG1 Fc with C220S (EU numbers) not printed]
notes: Single polypeptide with Fc; also called DbInk18
For B4, the equilibrium dissociation constant (Kd) in [7] was found to be 0.49 nM; in test [22], 0.65 nM; in [23], 0.492 nM; in test [14] it was 0.217 nM; in test [16], 0.22 nM. The “ADCC reporter assay, EC50 (FIG. 24B)” value in [10] was found to be 0.00579 nM. Besides, the IC50 in test [24] came to 0.652 nM. Further, in test [19], the “ADCC Reporter in MCF7-CLDN 18.2, EC50” value came to 0.0058 nM.

B5: scDb06, single-chain bispecific antibody with VH44-VL100 disulfides and longer L2 (bispecific antibody)
chain: DIQMTQSPSSLSASVGDRVTITCKSSQSLLNSGNQKSYLTWYQQKPGKAPKLLIYWASTLESGVPSRFSGSGSGTDYTLTISSLQPEDFATYYCQNAYFFPFTFGCGTKVEIKSGGGGEVQLVESGGGLVQPGGSLRLSCAASGFTFSRYWMSWVRQAPGKCLEWVANIKQDGSEKYYVDSVKGRFTISRDNAKNSLYLQMNSLRAEDTAVYYCAREGGWFGELAFDYWGQGTLVTVSSGGGGSGGGGSGGGGSGGGGSEIVLTQSPGTLSLSPGERATLSCRASQRVSSSYLAWYQQKPGQAPRLLIYDASSRATGIPDRFSGSGSGTDFTLTISRLEPEDFAVYYCQQYGSLPWTFGCGTKVEIKSGGGGEVQLVESGGGLVQPGGSLRLSCAVSGYTFSMNWVRQAPGKCLEWVAWINMYTGEPTYADDFKGRFTISRDDSKNTLYLQMNSLRAEDTAVYYCARLYNGNSLDYWGQGTLVTVSSGGGGS[human IgG1 Fc with C220S (EU numbers) not printed]
notes: Single polypeptide with Fc
For the molecule B5, the Kd turned out to be 0.35 nM in test [7], 0.21 nM in test [25], 0.21 nM in [16] and 0.352 nM in [26].

As a reminder, the Kd is the equilibrium constant for the complex coming apart. The term EC50 (read off the curve) denotes the concentration that produces a half-maximal response. A higher EC50 (read off the curve) goes with a need for much substance. The IC50 is the concentration that gives 50% inhibition.
